Reference: PubChem BioAssay AID504832 (National Center for Advancing Translational Sciences (NCATS), 2011)
Hit rate of the full screen: of about 310,000 compounds, about 18,000 (5.8%) were called active. The inconclusive results got no clear call from the source; some entries with a clear call stand among them for comparison. Calls follow the shape of the dose curve; as a rule, active = well fitted inhibition curve with a large enough effect; inconclusive = small, poorly fitted or top-dose-only effect, or another doubt; inactive = no such curve, though single readings can be large or run the other way. No potency is given beside an inconclusive call; the fits are too rough.

Experiment: Primary qHTS for delayed death inhibitors of the malarial parasite plastid, 48 hour incubation
Conditions: P. falciparum luciferase growth in erythrocytes; series mostly up to 28.7 µM
How it was run: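 Erythrocytes infected with P. falciparum carrying an integrated firefly luciferase reporter (2% hematocrit, 0.1% parasitemia final) were exposed to compounds in RPMI 1640 with 0.5% Albumax at 37 C, 5% CO2. Growth inhibition was scored as reduced luminescence.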
Potency is read from the fitted curve at half-maximal effect; tags tell the direction and shape of the fitted curve.

| SMILES | Potency |
| --- | --- |
| Cc1ccc(C)c(OCCn2cc(/C=C(\C#N)C(=O)NCc3ccco3)c3ccccc32)c1 | active: 9.28 µM |
| COC(=O)c1ccc(S(=O)(=O)N(C2CCCCC2)C2CCCCC2)n1C | active: 10.4 µM |
| CCCCNC(=O)CCC(=O)Nc1ccc2nc(N3CCC(C)CC3)cc(C)c2c1 | inactive |
| CCCCNc1oc(-c2ccc(OC)cc2)nc1S(=O)(=O)c1ccccc1 | inactive |
| Cc1nn(Cc2ccc(Cl)cc2Cl)c(C)c1NC(=O)C1C2CCC(O2)C1C(=O)O (centres undefined) | inconclusive [inhibitor, partial curve] |
| CCc1cc(C(=O)O)c(NC(=O)c2cc(OC)c(OC)c(OC)c2)s1 | inconclusive [inhibitor, partial curve, poor fit] |
| CCn1nc(C)c(CN2CCCC(CO)(Cc3cccc(Cl)c3)C2)c1C (centres undefined) | inconclusive [inhibitor, single point] |
| CN(CC(=O)Nc1ccccc1C(F)(F)F)C(=O)Cc1ccccc1F | inconclusive [inhibitor, partial curve, poor fit] |
| COc1cccc(C(=O)NCc2ccc(N3CCN(C(=O)OC(C)(C)C)CC3)cc2)c1 | inconclusive [inhibitor, partial curve, poor fit] |
| CC(C)(C)c1nn(-c2ccccc2)c2[nH]c(=O)c(CNCc3ccco3)cc12 | inconclusive [inhibitor, full curve] |
| O=[N+]([O-])c1ccc(C[n+]2c(-c3ccccc3)cc(-c3ccccc3)cc2-c2ccccc2)cc1 | active: 1.17 µM |
| COc1ccc(C2=NS(=O)(=O)N(C)C(C(=O)N3CCc4ccccc4C3)=C2)cc1OC | inconclusive [inhibitor, full curve, poor fit] |
| CCOCCCNC(=S)Nc1ccc2nc(N3CCN(CC)CC3)cc(C)c2c1 | inactive |
| Cc1ccc(C(=O)c2nc(C(=O)NCCO)nc3ccccc23)cc1 | inconclusive [inhibitor, single point] |
| CC(OC(=O)CC1CCCCC1)C(=O)Nc1cccc(C#N)c1 (centres undefined) | inconclusive [inhibitor, single point] |
| N#Cc1ccc(CN2CCN(C(=O)c3ccc(S(=O)(=O)N4CCCCCC4)cc3)CC2)cc1 | active: 13.1 µM |
| CCOC(=O)CNc1ccc(OC(F)(F)F)cc1 | inactive |
| CCC1CN(C(=O)N2CCC(C(=O)NCc3ccccc3OC)CC2)c2cc(C)ccc2O1 (centres undefined) | inconclusive [inhibitor, single point] |
| CCOC(=O)c1c(S(=O)(=O)NCC(=O)Nc2cccc(C)n2)c(C)n(C)c1C | inactive |
| CCOC(=O)C1(CCOc2ccccc2)CCN(Cc2ccc(CO)o2)CC1 | inconclusive [inhibitor, partial curve, poor fit] |
| CCN(CC)CCn1c(=N)n(CC(=O)c2ccc(Br)s2)c2ccccc21 | active: 1.85 µM |
| COc1ccc(-n2ncc(C(C)NS(=O)(=O)c3cccs3)c2C)cc1 (centres undefined) | inconclusive [inhibitor, partial curve, poor fit] |

| SMILES | Potency |
| --- | --- |
| N#Cc1c(N2CCN(C(=O)c3ccco3)CC2)nc(-c2ccccc2)c2c1CCCC2 | inconclusive [inhibitor, single point] |
| COc1ccc(CCNC(=O)c2ccc3nc(N4CCCCC4)sc3c2)cc1OC | inconclusive [inhibitor, partial curve, poor fit] |
| c1ccc(C[C@H]2CNCCN2CC2(c3ccccc3)CC2)cc1 | inconclusive [inhibitor, partial curve, poor fit] |
| O=[N+]([O-])c1ccc(/C=N\NS(=O)(=O)c2ccc(F)cc2)o1 | inactive |
| Cc1ccc(OCCCC(=O)NC2CCCCC2)cc1 | inactive |
| CCOC(=O)c1c(NC(=O)COc2ccccc2OCC)sc2c1CC(C)(C)NC2(C)C | inconclusive [inhibitor, single point] |
| CNC(=O)c1ccccc1NC(=O)c1ccc(C)c(S(=O)(=O)N2CCCCC2)c1 | inconclusive [inhibitor, single point] |
| CCOc1cc2c(cc1OCC)-n1cccc1C(c1ccc(OC)cc1)NC2 (centres undefined) | inconclusive [inhibitor, partial curve] |
| Cc1ccc(NC(=S)NC2CC3CCCC(C2)N3Cc2ccco2)cc1 (centres undefined) | inconclusive [inhibitor, single point] |
| C1=C(c2cccc3ccccc23)N2CCN=C2S1 | inconclusive [inhibitor, single point] |
| Cc1ccc(OCCCC(=O)Nc2nncs2)cc1 | inconclusive [inhibitor, single point] |
| Nc1ccccc1Oc1ccc2ccccc2c1 | inactive |
| CS(=O)(=O)N1CCC(C(=O)N2CCN(C(c3ccccc3)c3ccccc3)CC2)CC1 | inconclusive [inhibitor, single point] |
| COc1cc(/C=C/C(=O)O)cc(OC)c1 | inactive |
| COc1ccc(NC(=O)c2cc3c([nH]c4ccccc43)c(C)n2)cc1 | inconclusive [inhibitor, single point] |
| S=c1[nH]ncn1/N=C/c1cccc(Oc2ccccc2)c1 | inactive |
| Cc1ccc(S(=O)(=O)NCC(c2ccco2)N2CCc3ccccc32)cc1 (centres undefined) | inconclusive [inhibitor, single point] |
| Cc1nc2nc(C)c(CCC(=O)NCc3ccc4c(c3)OCO4)c(C)n2n1 | inactive |
| Cc1ccc(CNC(=O)CNC(=S)N(Cc2ccccc2)Cc2ccccc2F)cc1 | inconclusive [inhibitor, partial curve, poor fit] |
| CCOC(=O)c1ccc(S(=O)(=O)NCCN2CCOCC2)cc1 | inconclusive [inhibitor, full curve, poor fit] |
| CCC(=O)Nc1ccc(NC(=O)CSc2nc3c(c(=O)n(C)c(=O)n3C)n2CC)cc1 | inconclusive [inhibitor, single point] |
| Cc1ccc(-n2c(CCc3ccccc3)n[nH]c2=S)cc1C | inconclusive [inhibitor, partial curve, poor fit] |
